The values that follow come from the supplement of paper PMC12217912.

The list shows a part of the results. The full chains were built here from the parent and the listed change. Inactive controls read about 0.05.

First the molecules themselves.
B1: TEV protease; numbered along this chain (parent)
chain: MGESLFKGPRDYNPISSSICHLTNESDGHTTSLYGIGFGPFIITNKHLFRRNNGTLVVQSLHGVFKVKDTTTLQQHLVDGRDMIIIRMPKDFPPFPQKLKFREPQREERICLVTTNFQTKSMSSMVSDTSCTFPSGDGIFWKHWIQTKDGQCGSPLVSTRDGFIVGIHSASNFTNTNNYFTSVPKNFMELLTNQEAQQWVSGWRLNADSVLWGGHKVFMVKPEEPFQPVKEATQL

The variants in this assay derive from B1. Nature of the assay: raw area under fraction-flipped curve 0-4 h after induction (AUC4h, not background-subtracted), DNA-recorder readout of cleavage of the substrate (dimensionless); higher = more cleavage of the substrate by the protease variant. The conditions noted are these: temperature: 34 °C; time window: 0-4 h after rhamnose induction. The procedure:
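In vivo DNA recorder in E. coli TOP10(DE3) ΔrhaA at 34 °C. Each TEVp single-site mutant (parent TEVp 0) is paired with a single-site variant of the 7-mer TEVs (canonical ENLYFQ|S). The substrate sits between flexible linkers in a Bxb1-sfGFP-TEVs-SsrA fusion, so cleavage stabilises Bxb1 and speeds flipping of a recombination array, read by NGS. The value is the raw area under the fraction-flipped curve over 0-4 h after rhamnose induction (AUC4h), with ≥20 reads per time point. It is not background-subtracted; inactive controls average about 0.047.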
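Further: Bxb1 expression induced with 0.2% (w/v) L-rhamnose at OD600 near 0.5, cultures sampled hourly, flipped fraction per protease–substrate barcode pair counted by paired-end Illumina sequencing.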

Take MGESLFKGPRDYNPISSSICHLTNESDGHTTSLYGIGFGPFIITNKHLFRRNNGTLVVQSLHGVFKVKDTTTLQQHLVDGRDMIIIRMPKDFPPFPQKLKFREPQREERICLVTTNFQTKSMSSMVSDTSCTFPSGDGIFWKHWIQTKDGQCGSPLVSTRDGFIVGIHSASNFHNTNNYFTSVPKNFMELLTNQEAQQWVSGWRLNADSVLWGGHKVFMVKPEEPFQPVKEATQL [T174H]: the “area with substrate ENLYFAS” value was 0.066, the “area with substrate ENLYFDS” value is 0.053, the “area with substrate ENLYFES” value turned out to be 0.0788 and the “area with substrate ENLYFGS” value was 0.0542. In addition, the “area with substrate ENLYFHS” value was found to be 0.0355, the “area with substrate ENLYFIS” value came out at 0.0619, the “area with substrate ENLYFLS” value is 0.0635 and the “area with substrate ENLYFPS” value amounted to 0.0548. Also, the “area with substrate ENLYFTS” value is 0.0557, the “area with substrate ENLYFVS” value worked out at 0.0642 and the “area with substrate ENLYFWS” value amounted to 0.0561.
On to MGESLFKGPRDYNPISSSICHLTNESDGHTTSLYGIGFGPFIITNKHLFRRNNGTLVVQSLHGVFKVKDTTTLQQHLVDGRDMIIIRSPKDFPPFPQKLKFREPQREERICLVTTNFQTKSMSSMVSDTSCTFPSGDGIFWKHWIQTKDGQCGSPLVSTRDGFIVGIHSASNFTNTNNYFTSVPKNFMELLTNQEAQQWVSGWRLNADSVLWGGHKVFMVKPEEPFQPVKEATQL [M88S], for which the “area with substrate ENLYFAS” value was 0.0517, the “area with substrate ENLYFCS” value was 0.0554, the “area with substrate ENLYFHS” value is 0.0538 and the “area with substrate ENLYFIS” value stood at 0.0522. Also, the “area with substrate ENLYFPS” value was 0.0576, the “area with substrate ENLYFVS” value is 0.0578 and the “area with substrate ENLYFWS” value was determined as 0.0543.
Turning to MGESLFKGPRDYNPISSSICHLTNESDGHTTSLYGIGFGPFIITNKHLFRRNNGTLVVQSLHGVFKVKDTTTLQQHLVDGRDMIIIRMPKDFPPFPQKLKFREPQREERICLVTTNFQTKSMSSMVSDTSCTFPSSDGIFWKHWIQTKDGQCGSPLVSTRDGFIVGIHSASNFTNTNNYFTSVPKNFMELLTNQEAQQWVSGWRLNADSVLWGGHKVFMVKPEEPFQPVKEATQL [G136S], the “area with substrate ENLYFAS” value was 0.0599, the “area with substrate ENLYFES” value was determined as 0.0685, the “area with substrate ENLYFFS” value came out at 0.0706 and the “area with substrate ENLYFHS” value was 0.0602. Moreover, the “area with substrate ENLYFIS” value was found to be 0.0588, the “area with substrate ENLYFKS” value was 0.0355, the “area with substrate ENLYFMS” value was determined as 0.0592 and the “area with substrate ENLYFNS” value amounted to 0.0702. Further, the “area with substrate ENLYFRS” value came to 0.0621 and the “area with substrate ENLYFWS” value amounted to 0.0501.
Consider MGESLFKGPRDYNPISSSICHLTNESDGHTTSLYGIGFGPFIITNKHLFRRNNGTLVVQSLHGVFKVKDTTTLQQHLVDGRDMIIIRMPKDFPPFPQKLKFREPQREERICLVTTNFQTKSMSSMVSDTSCTFPSGDGIFWKHWIQTKDGQCGSPLVMTRDGFIVGIHSASNFTNTNNYFTSVPKNFMELLTNQEAQQWVSGWRLNADSVLWGGHKVFMVKPEEPFQPVKEATQL [S158M], for which the “area with substrate ENLYFAS” value was 0.0577, the “area with substrate ENLYFCS” value was 0.058, the “area with substrate ENLYFES” value was 0.0607 and the “area with substrate ENLYFFS” value came out at 0.0707. The “area with substrate ENLYFHS” value stood at 0.0539, the “area with substrate ENLYFIS” value was 0.0534, the “area with substrate ENLYFLS” value was 0.0596 and the “area with substrate ENLYFMS” value turned out to be 0.045. Besides, the “area with substrate ENLYFNS” value was 0.094, the “area with substrate ENLYFPS” value came to 0.0654, the “area with substrate ENLYFRS” value is 0.0449 and the “area with substrate ENLYFVS” value was 0.0586. In addition, the “area with substrate ENLYFWS” value is 0.0489 and the “area with substrate ENLYFYS” value is 0.0439.
Take MGESLFKGPRDYNPISSSICHLTNESDGHTTSLYGIGFGPFIITNKHLFRRNNFTLVVQSLHGVFKVKDTTTLQQHLVDGRDMIIIRMPKDFPPFPQKLKFREPQREERICLVTTNFQTKSMSSMVSDTSCTFPSGDGIFWKHWIQTKDGQCGSPLVSTRDGFIVGIHSASNFTNTNNYFTSVPKNFMELLTNQEAQQWVSGWRLNADSVLWGGHKVFMVKPEEPFQPVKEATQL [G54F]: the “area with substrate ENLYFAS” value came out at 0.062, the “area with substrate ENLYFDS” value is 0.0499, the “area with substrate ENLYFES” value was determined as 0.0577 and the “area with substrate ENLYFFS” value is 0.075. The “area with substrate ENLYFIS” value is 0.0587, the “area with substrate ENLYFLS” value was determined as 0.0735, the “area with substrate ENLYFMS” value was 0.0575 and the “area with substrate ENLYFNS” value stood at 0.0779. The “area with substrate ENLYFPS” value was determined as 0.0655, the “area with substrate ENLYFSS” value came to 0.0438, the “area with substrate ENLYFVS” value came to 0.0558 and the “area with substrate ENLYFWS” value turned out to be 0.0606. The “area with substrate ENLYFYS” value was 0.0592.
MGESLFKGPRDYNPISSSICHLTNESDGHTTSLYGIGFGPFIITNKHLFRRNNGTLVVQSLHGVFKVKDTTTLQQHLVDGRDMIIIRMPKDFPPFPQKLKFREPQREERICLVTTNFQTKSMSSMVSDTSCTFPSGDGIFWKHWIQTKDGQCGSPLMSTRDGFIVGIHSASNFTNTNNYFTSVPKNFMELLTNQEAQQWVSGWRLNADSVLWGGHKVFMVKPEEPFQPVKEATQL [V157M]: the “area with substrate ENLYFAS” value amounted to 0.0692, the “area with substrate ENLYFCS” value was found to be 0.0601, the “area with substrate ENLYFDS” value amounted to 0.0756 and the “area with substrate ENLYFES” value amounted to 0.056. Moreover, the “area with substrate ENLYFFS” value is 0.0628, the “area with substrate ENLYFGS” value was determined as 0.051, the “area with substrate ENLYFHS” value turned out to be 0.0799 and the “area with substrate ENLYFIS” value turned out to be 0.0613. Moreover, the “area with substrate ENLYFKS” value stood at 0.0404, the “area with substrate ENLYFMS” value came to 0.0664, the “area with substrate ENLYFNS” value worked out at 0.0535 and the “area with substrate ENLYFPS” value came out at 0.0594. Also, the “area with substrate ENLYFRS” value is 0.0528, the “area with substrate ENLYFTS” value was 0.0458 and the “area with substrate ENLYFWS” value was found to be 0.0592.
Take MGESLFKGPRDYNPISSSIYHLTNESDGHTTSLYGIGFGPFIITNKHLFRRNNGTLVVQSLHGVFKVKDTTTLQQHLVDGRDMIIIRMPKDFPPFPQKLKFREPQREERICLVTTNFQTKSMSSMVSDTSCTFPSGDGIFWKHWIQTKDGQCGSPLVSTRDGFIVGIHSASNFTNTNNYFTSVPKNFMELLTNQEAQQWVSGWRLNADSVLWGGHKVFMVKPEEPFQPVKEATQL [C20Y]: the “area with substrate ENLYFAS” value came out at 0.0517, the “area with substrate ENLYFCS” value was 0.0404, the “area with substrate ENLYFDS” value amounted to 0.0466 and the “area with substrate ENLYFFS” value stood at 0.0267. Also, the “area with substrate ENLYFIS” value turned out to be 0.049, the “area with substrate ENLYFMS” value was 0.0314, the “area with substrate ENLYFPS” value is 0.0592 and the “area with substrate ENLYFWS” value came to 0.0718. For the same variant, the “area with substrate ENLYFYS” value was found to be 0.0519.
Consider MGESLFKGPRDYNPISSSICHLTNESDGHTTSLYGIGFGPFIITNKHLFRRNNGTLVVQSLHKVFKVKDTTTLQQHLVDGRDMIIIRMPKDFPPFPQKLKFREPQREERICLVTTNFQTKSMSSMVSDTSCTFPSGDGIFWKHWIQTKDGQCGSPLVSTRDGFIVGIHSASNFTNTNNYFTSVPKNFMELLTNQEAQQWVSGWRLNADSVLWGGHKVFMVKPEEPFQPVKEATQL [G63K], for which the “area with substrate ENLYFAS” value came out at 0.0618, the “area with substrate ENLYFES” value is 0.054, the “area with substrate ENLYFFS” value was 0.0646 and the “area with substrate ENLYFIS” value stood at 0.0553. Moreover, the “area with substrate ENLYFKS” value is 0.0581, the “area with substrate ENLYFMS” value amounted to 0.0572, the “area with substrate ENLYFNS” value worked out at 0.0466 and the “area with substrate ENLYFSS” value worked out at 0.0501. Moreover, the “area with substrate ENLYFTS” value stood at 0.0558 and the “area with substrate ENLYFWS” value stood at 0.048.
Consider MGESLFKGPRDYNPISSSICHLTNESDGHTTSLYGIGFGPFIITNKHLFRRNNGTLVVQSLHGVFKVKDTTTLQQHLVDGRDMIIIRMPKDFPPFPQKLKFREPQREERICLVTTNFQTKSMSSMVSDTSCTFPSGDGIFWKHWIQTKDGQCGSPLVSTRDGFIVGIHSASNFTNTNNYFTSVPKNFMELLTNQEAQQWVSGWRLNADSVLWGGHKVFHVKPEEPFQPVKEATQL [M219H], for which the “area with substrate ENLYFAS” value came to 0.049, the “area with substrate ENLYFCS” value was 0.0977, the “area with substrate ENLYFES” value stood at 0.0583 and the “area with substrate ENLYFFS” value stood at 0.0648. Moreover, the “area with substrate ENLYFGS” value is 0.0608, the “area with substrate ENLYFHS” value is 0.0608, the “area with substrate ENLYFIS” value is 0.0591 and the “area with substrate ENLYFKS” value worked out at 0.0564. In addition, the “area with substrate ENLYFLS” value amounted to 0.061, the “area with substrate ENLYFMS” value amounted to 0.0608, the “area with substrate ENLYFNS” value came out at 0.0554 and the “area with substrate ENLYFPS” value was determined as 0.0641. Moreover, the “area with substrate ENLYFSS” value was determined as 0.0485 and the “area with substrate ENLYFYS” value was 0.0582.
In the case of MGESLFKGPRDYNPISSSICHLTNESDGHTTSLYGIGFGPFIITNKHLFRRNNGTLVVQSLHGVFKVKDTYTLQQHLVDGRDMIIIRMPKDFPPFPQKLKFREPQREERICLVTTNFQTKSMSSMVSDTSCTFPSGDGIFWKHWIQTKDGQCGSPLVSTRDGFIVGIHSASNFTNTNNYFTSVPKNFMELLTNQEAQQWVSGWRLNADSVLWGGHKVFMVKPEEPFQPVKEATQL [T71Y], the “area with substrate ENLYFAS” value came out at 0.0629, the “area with substrate ENLYFHS” value came to 0.0595, the “area with substrate ENLYFIS” value worked out at 0.0499 and the “area with substrate ENLYFKS” value was found to be 0.0574. Further, the “area with substrate ENLYFLS” value is 0.0546, the “area with substrate ENLYFNS” value is 0.0633, the “area with substrate ENLYFPS” value was 0.0285 and the “area with substrate ENLYFSS” value turned out to be 0.0452. Besides, the “area with substrate ENLYFVS” value came out at 0.048, the “area with substrate ENLYFWS” value is 0.0625 and the “area with substrate ENLYFYS” value came to 0.0674.
